Over roughly 33,000 sequences, “E-score (-0.5 to 0.5)” has its median near -0.021; the highest 2% begin near 0.32. Some of the results follow.

In the test the target is T1, Zap1 (UniProt P47043).
T1 sequence: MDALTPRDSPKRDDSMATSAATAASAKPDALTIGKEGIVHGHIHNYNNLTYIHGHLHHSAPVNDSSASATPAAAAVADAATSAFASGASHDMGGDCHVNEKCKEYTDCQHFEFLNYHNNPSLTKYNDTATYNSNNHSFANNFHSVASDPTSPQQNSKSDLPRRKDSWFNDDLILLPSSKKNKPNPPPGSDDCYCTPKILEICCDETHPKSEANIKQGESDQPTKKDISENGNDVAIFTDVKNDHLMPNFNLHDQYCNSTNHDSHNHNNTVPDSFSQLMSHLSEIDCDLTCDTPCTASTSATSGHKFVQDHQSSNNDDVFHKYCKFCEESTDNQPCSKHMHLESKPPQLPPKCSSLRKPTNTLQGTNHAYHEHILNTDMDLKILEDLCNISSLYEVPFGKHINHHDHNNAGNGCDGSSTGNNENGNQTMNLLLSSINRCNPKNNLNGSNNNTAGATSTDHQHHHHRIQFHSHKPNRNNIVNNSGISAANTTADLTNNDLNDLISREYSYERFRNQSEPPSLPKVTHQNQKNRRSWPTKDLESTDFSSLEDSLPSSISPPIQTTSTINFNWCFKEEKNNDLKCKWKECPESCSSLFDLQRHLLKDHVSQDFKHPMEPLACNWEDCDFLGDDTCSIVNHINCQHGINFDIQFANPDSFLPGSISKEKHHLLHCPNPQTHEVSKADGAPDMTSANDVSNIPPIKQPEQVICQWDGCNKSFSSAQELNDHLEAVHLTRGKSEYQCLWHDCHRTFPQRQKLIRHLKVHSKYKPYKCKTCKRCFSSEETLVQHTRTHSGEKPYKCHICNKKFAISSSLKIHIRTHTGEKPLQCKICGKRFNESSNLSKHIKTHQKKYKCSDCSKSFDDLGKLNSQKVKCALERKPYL
In words: PBM E-score (8-mer binding enrichment) (E-score (-0.5 to 0.5)); higher = stronger / more preferred TF binding; most listed sequences are background and not binding sites. As to conditions: protein concentration: 200 nM; construct: GST-full length. Put shortly: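 GST-tagged yeast TFs (full-length or DNA-binding domain) were made by PURExpress in vitro transcription/translation and applied at about 100-200 nM to universal all-10-mer Agilent arrays. The arrays were made double-stranded by primer extension, on fresh or once-stripped slides. Bound protein was detected with fluorescent anti-GST, and scans were normalised with masliner. Each ungapped eight-base word, pooled with its reverse complement, received an E-score (modified Wilcoxon-Mann-Whitney statistic) from the Universal PBM Analysis Suite.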
As for GCGGGCCC, the “PBM E-score” value is -0.0946.

Regarding ATTCCCAA, the “PBM E-score” value is 0.18. For CCCTCTTC the value was -0.137; for ACTGCTCA, 0.094; for AGATTCCG, 0.163. For GGTCCTTA the value was 0.143. The value for ACATTAAC was 0.195; that for ACGAGGAT was -0.069. AGTTCCGC: the “PBM E-score” value is 0.037. For AGCGTCCT the value was -0.258. For CTCCTTAC the value was -0.0613; for GTTTTTCA, 0.189; for AACAGTAC, 0.13. As for CTTGAGGC, the “PBM E-score” value was -0.17. For TTATGCAA the value was 0.162. For ATTGTACA the value was 0.0531; for AAGTACGC, -0.152; for ACGCTGGC, -0.233. The value for GTGACAGA was -0.0613. With ACTGAACG, the “PBM E-score” value was -0.0857.

Take CGCCGGCA: the “PBM E-score” value was -0.189.

As for ACGGGCCA, the “PBM E-score” value is -0.0237. The value for CAAAGGCC was 0.103. For CCCCTGCG the value was -0.17; for GACTGTGC, -0.209. The value for CCGACCCA was 0.074; that for AAAAAAAC was 0.216; that for ACCCCGTA was 0.27.

Take GAAACGAC: the “PBM E-score” value was determined as 0.00701. For CAAGGACG the value was -0.0639; for ACCTAACA, 0.205; for GCTGCACA, -0.142.

As for ACTTGAGG, the “PBM E-score” value worked out at 0.0228.

In the case of AGACAGTG, the “PBM E-score” value was -0.138. For GAAATCTA the value was 0.0568; for AGCACAGA, -0.0261; for AGACTTTA, -0.0915. For AGGGAATG the value was -0.0655; for ATGTCTGG, -0.0336; for CCTGTCGC, 0.07. With AGAATTCT, the “PBM E-score” value is 0.14. On to CCTTTTTC, for which the “PBM E-score” value amounted to 0.244. With GTAGTTTA, the “PBM E-score” value worked out at 0.26. The value for GAATAGCA was 0.056. Consider ACACAAAG, for which the “PBM E-score” value stood at 0.11. Consider TCGAGCGA, for which the “PBM E-score” value worked out at 0.00534. The value for CAAGTATG was 0.0716; that for CAAATCAA was 0.0611; that for CCGCACAC was -0.0131. For AGATCGGA the value was -0.119.

For the sequence CCTGATTA, the “PBM E-score” value worked out at 0.12.

Take AATTGTCC: the “PBM E-score” value turned out to be 0.0537. For ACAGTACA the value was 0.0478. The value for GCCCTCGC was -0.189.

With GTGTATAA, the “PBM E-score” value was -0.037. The value for ATGTGGCG was -0.105. For CCCGGGCC the value was -0.0348.

In the case of CACACTCA, the “PBM E-score” value came to 0.0991.

As for CCGACGCC, the “PBM E-score” value worked out at 0.00541. With AATAGGGT, the “PBM E-score” value came out at 0.374. Take CCGACTGA: the “PBM E-score” value was -0.178. As for ATACACTA, the “PBM E-score” value is 0.133. With AGCCTCCC, the “PBM E-score” value is -0.285. The value for ATTCAACA was 0.0625.

On to GAAGTCAA, for which the “PBM E-score” value was 0.00236. The value for AGCCTTTC was -0.185; that for CCTTTAAC was 0.352. For AATCCTTA the value was 0.00386. For ATTCGCGA the value was 0.0448. With CCCCCCCG, the “PBM E-score” value was -0.363. As to AAAAGCCT, the “PBM E-score” value was -0.297. Turning to ATAGTCAT, the “PBM E-score” value is -0.0925. In the case of CGAATCCG, the “PBM E-score” value was -0.134.

As for CACGCTCC, the “PBM E-score” value is -0.239.

With CAGATATA, the “PBM E-score” value was 0.165.

Turning to AAGGCGCG, the “PBM E-score” value was -0.261. The value for ATTCCAAT was 0.078. The value for ATGCAATC was -0.014.

Consider CGTATGAA, for which the “PBM E-score” value came out at 0.101. The value for ATGGACTA was -0.0198; that for AAACCCGC was -0.0153. Consider CTTCTTTA, for which the “PBM E-score” value came out at 0.141. CACACGAA: the “PBM E-score” value worked out at 0.134. The value for ATACCTTC was 0.169; that for TGGTTACA was 0.395; that for ACCAGAAG was -0.0493. The value for ACAGACTA was 0.00562; that for ACCTTCAG was 0.29; that for CAGGCCGC was -0.235.

For GTAAATTA, the “PBM E-score” value turned out to be 0.0174.

With CCGGCTCA, the “PBM E-score” value was -0.0474.

Turning to ATGCCGAG, the “PBM E-score” value is -0.145. The value for ATTACGCC was -0.109; that for ACTGAGAC was -0.131. For ATGGCTTC the value was -0.0944; for CTGCGAGC, -0.0642. Consider ACGCCGAC, for which the “PBM E-score” value is -0.111. Take AAATATCC: the “PBM E-score” value was determined as 0.148.

For the sequence CGGGTGGA, the “PBM E-score” value is -0.0426. For TCGGTTAA the value was 0.274; for AACCGAAT, 0.132. The value for ATCTGTCA was -0.0498; that for GCAAGTAA was 0.182. For CTCGATTC the value was -0.0635; for ATTTCCGG, 0.107. Consider GTGTGGCA, for which the “PBM E-score” value is -0.332. Regarding ATCTTCAG, the “PBM E-score” value amounted to 0.0589. The value for AAATTGGT was 0.267; that for CACCTTGG was 0.0937.

The values are drawn from the supplement of paper PMC3334620.
